The text below walks through data of publication PMC6451091.

The other results are listed elsewhere or left out. For some assays here: At the low end of the ranking the order means little. For some assays here: The protein was read in a cell extract, so binding may be indirect.

One assay addresses PU.1 (IVT) (UniProt P17947). Briefly: protein-binding microarray (PBM). The settings on record: 20 mM HEPES pH 7.9, 100 mM NaCl, 1 mM DTT, 0.2 mg/mL BSA, 0.02% Triton X-100, 2% milk, 0.4 mg/mL salmon testes DNA; 1 h; temperature not stated; high values mean tight binding; double strand, one strand shown; sequences stand for … in GCCTAGCAC…GTGCTAGGTCTTGATTCGCTTGACGCTGCTG
TGGCACAGGAAGTGAAACTA showed a binding signal of 2.38 z-score.
TGAAACAGCAAGTGAAACCA gave a binding signal of -0.513 z-score.
In turn, CTGCAAAGGAAGTGAAACTC yielded a binding signal of 1.58 z-score.
Turning to TTTAAAGGGAAATGAAAGTC, the binding signal turned out to be 1.44 z-score.
The sequence AAAAGGAGGAACTGAAACCA returned a binding signal of 4.47 z-score.
On to GAAAGGAGGAAGTGAAACTG, for which the binding signal is 6.19 z-score.
For TGAAACAGGAAGGGAAACCA, the binding signal worked out at 2.5 z-score.
Still for that read-out and setting: as for TCCTGGAGGAAGTGAAACTG, the figure is 3.2 z-score.
Same read-out and setting: as for AAGGATGGGAAGTGAAAGTG, the figure is 2.72 z-score; as for TGAGAAGAGAAGTGAAACCT, 1.01 z-score; as for TGAAACAGGCAGTGAAACCA, -0.323 z-score.
For the sequence AAAAAAAGGAAATGCAAGTA, the binding signal was 2.88 z-score.
TGGCAGAGGAAGTGAAAGTA gave a binding signal of 3.54 z-score.
For the sequence TAAAGGAGGAACTGAAAGCA, the binding signal worked out at 3.55 z-score.
Same read-out and setting: as for TAAAGGAGGAACTCAAACCA, the figure is 3.38 z-score.
Regarding AAAAAGAGGAACTGAAACTA, the binding signal was found to be 7.78 z-score.
Consider AAAAAAAGGAAGTGAAAGTA, for which the binding signal was determined as 6.78 z-score.
Same read-out and setting: as for GATGAGAGGAACTGAAAGCT, the figure is 2.23 z-score; as for AAAAAAAGGAAATGAAACTT, 3.41 z-score.
With TTGGTCAGGAAGTGAAACTG, the binding signal came to 1.38 z-score.
Same read-out and setting: under GGCTGGCAGAAGTGAAACTC stands 0.153 z-score; under CTGGCACGGAACTGAAACTC, 0.856 z-score.
On the same count and under the same terms, under AAAAAAGAGAAGTGAAACTA stands 4.61 z-score; under TGGCAGAGGAAGTGAAACTG, 3.48 z-score; under GAGGAGAGGAAGTGAAACTT, 4.01 z-score.
Same read-out and setting: under ATTAAGGGGAAGTGAAACAT stands 5.15 z-score; under TAAAGGAGGAACTGAAACAA, 3.35 z-score.
CTTTAGAGGAACTGAAACTC displayed a binding signal of 2.69 z-score.
Turning to TGAAACAGGTAGTGAAACCA, the binding signal was found to be 0.968 z-score.
Consider TGGCAGAGGAAGTGAAACTA, for which the binding signal came to 3.6 z-score.
In the case of CTGGCAGGGAACTCAAACTC, the binding signal is 0.554 z-score.
The same measure, in the same setting: as for GAAAATGGGAAGTGAAACTA, the figure is 5.99 z-score; as for TGAGAGGGGAAGTGAAACCT, 4.12 z-score.
The same measure, in the same setting: under CTGCCAGAGAAGTGAAAGCA stands -0.162 z-score; under TGAGAGGAGTAGTGAAACCT, -0.488 z-score.
Still for that read-out and setting: under CTGGCAGGTAACTGAAACTC stands 0.163 z-score; under TGAGAGGAGAATTGAAACCT, -0.143 z-score.
Regarding GAAAAGGGGAACTGAAACTA, the binding signal was 6.15 z-score.
CTGCCAGGGAAGGGAAAGCA: the binding signal was -0.0351 z-score.
For the sequence TGAGAGGAGAAGTGAAACAT, the binding signal turned out to be 1.28 z-score.

The target in the next assay is T1, FLI1 (endogenous, THP-1 nuclear extract) (UniProt Q01543).
T1 sequence: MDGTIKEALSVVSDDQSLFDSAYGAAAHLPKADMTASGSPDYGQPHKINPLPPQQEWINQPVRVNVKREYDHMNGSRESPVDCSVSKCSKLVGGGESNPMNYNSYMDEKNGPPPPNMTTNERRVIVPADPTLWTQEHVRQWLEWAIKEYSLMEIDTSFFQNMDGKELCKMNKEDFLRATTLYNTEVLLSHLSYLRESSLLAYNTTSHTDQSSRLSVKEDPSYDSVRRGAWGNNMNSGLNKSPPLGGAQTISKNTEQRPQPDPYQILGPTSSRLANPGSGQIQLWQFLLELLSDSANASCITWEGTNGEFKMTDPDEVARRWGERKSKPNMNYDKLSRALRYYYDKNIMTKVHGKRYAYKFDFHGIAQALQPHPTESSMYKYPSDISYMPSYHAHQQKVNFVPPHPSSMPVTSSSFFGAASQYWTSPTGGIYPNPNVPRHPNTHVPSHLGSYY
In words: nuclear extract protein-binding microarray (nextPBM). The note with it: 20 mM HEPES pH 7.9, 100 mM NaCl, 1 mM DTT, 0.2 mg/mL BSA, 0.02% Triton X-100, 2% milk, 0.4 mg/mL salmon testes DNA; 1 h; temperature not stated; high values mean tight binding; double strand, one strand shown; sequences stand for … in GCCTAGCAC…GTGCTAGGTCTTGATTCGCTTGACGCTGCTG
In turn, TGGCACAGGAAGTGAAACTA gave a binding signal of 5.1 z-score.
The sequence TGAAACAGCAAGTGAAACCA returned a binding signal of 0.0336 z-score.
The sequence CTGCAAAGGAAGTGAAACTC yielded a binding signal of 2.24 z-score.
As for TTTAAAGGGAAATGAAAGTC, the binding signal is 1.36 z-score.
With AAAAGGAGGAACTGAAACCA, the binding signal turned out to be 2.34 z-score.
GAAAGGAGGAAGTGAAACTG displayed a binding signal of 3.67 z-score.
TGAAACAGGAAGGGAAACCA had a binding signal of 2.86 z-score.
On to TCCTGGAGGAAGTGAAACTG, for which the binding signal came to 3.4 z-score.
Still for that read-out and setting: as for AAGGATGGGAAGTGAAAGTG, the figure is 1.51 z-score; as for TGAGAAGAGAAGTGAAACCT, 0.00363 z-score.
Still for that read-out and setting: as for TGAAACAGGCAGTGAAACCA, the figure is -0.183 z-score; as for AAAAAAAGGAAATGCAAGTA, 2.08 z-score; as for TGGCAGAGGAAGTGAAAGTA, 3.21 z-score.
As for TAAAGGAGGAACTGAAAGCA, the binding signal was found to be 1.32 z-score.
As for TAAAGGAGGAACTCAAACCA, the binding signal came out at 1.1 z-score.
AAAAAGAGGAACTGAAACTA gave a binding signal of 4.13 z-score.
Consider AAAAAAAGGAAGTGAAAGTA, for which the binding signal is 3.78 z-score.
Sequence GATGAGAGGAACTGAAAGCT gave a binding signal of 0.792 z-score.
Same read-out and setting: as for AAAAAAAGGAAATGAAACTT, the figure is 3 z-score.
As for TTGGTCAGGAAGTGAAACTG, the binding signal was 3.29 z-score.
GGCTGGCAGAAGTGAAACTC displayed a binding signal of -0.305 z-score.
Still for that read-out and setting: under CTGGCACGGAACTGAAACTC stands 0.695 z-score; under AAAAAAGAGAAGTGAAACTA, 2.68 z-score.
For the sequence TGGCAGAGGAAGTGAAACTG, the binding signal is 3.42 z-score.
For GAGGAGAGGAAGTGAAACTT, the binding signal worked out at 3.77 z-score.
For ATTAAGGGGAAGTGAAACAT, the binding signal came to 2.95 z-score.
As for TAAAGGAGGAACTGAAACAA, the binding signal turned out to be 1.36 z-score.
Still for that read-out and setting: as for CTTTAGAGGAACTGAAACTC, the figure is 1.69 z-score; as for TGAAACAGGTAGTGAAACCA, 1.09 z-score.
Same read-out and setting: as for TGGCAGAGGAAGTGAAACTA, the figure is 3.91 z-score; as for CTGGCAGGGAACTCAAACTC, 0.601 z-score; as for GAAAATGGGAAGTGAAACTA, 2.96 z-score.
Take TGAGAGGGGAAGTGAAACCT: the binding signal is 3.01 z-score.
Same read-out and setting: under CTGCCAGAGAAGTGAAAGCA stands -0.318 z-score; under TGAGAGGAGTAGTGAAACCT, -0.501 z-score.
In turn, CTGGCAGGTAACTGAAACTC yielded a binding signal of -0.327 z-score.
TGAGAGGAGAATTGAAACCT: the binding signal was -0.0677 z-score.
The sequence GAAAAGGGGAACTGAAACTA came in with a binding signal of 3.65 z-score.
Same read-out and setting: under CTGCCAGGGAAGGGAAAGCA stands 0.436 z-score.
On to TGAGAGGAGAAGTGAAACAT, for which the binding signal is 0.48 z-score.
